Source: PubChem BioAssay AID1159614 (National Center for Advancing Translational Sciences (NCATS), 2016)
The campaign covered roughly 45,000 compounds. About 65 (0.1%) were called active. The call rests on the fitted dose curve; in most records, active means well fitted activation curve with a large enough effect; inconclusive means small, poorly fitted or top-dose-only effect; inactive means no such curve, though single readings can be large or run the other way. Some of the results follow.

target: Galactocerebrosidase (Homo sapiens) (UniProt P54803); experiment: A Novel Cell-Based Assay to Identify Small Molecules for B -Galactocerebrosidase; details: 145M-Twi-hGALC-G270D cells (Twitcher mouse brain line with human GALC G270D), HMU-beta-Gal fluorescence, 48 h; series mostly up to 57.5 µM; activation: at the top concentration; further: 0% is about no effect; nearly all actives have a fitted effect of over 65% in size
Sequence of UniProt P54803 (P54803 whole entry, looked up): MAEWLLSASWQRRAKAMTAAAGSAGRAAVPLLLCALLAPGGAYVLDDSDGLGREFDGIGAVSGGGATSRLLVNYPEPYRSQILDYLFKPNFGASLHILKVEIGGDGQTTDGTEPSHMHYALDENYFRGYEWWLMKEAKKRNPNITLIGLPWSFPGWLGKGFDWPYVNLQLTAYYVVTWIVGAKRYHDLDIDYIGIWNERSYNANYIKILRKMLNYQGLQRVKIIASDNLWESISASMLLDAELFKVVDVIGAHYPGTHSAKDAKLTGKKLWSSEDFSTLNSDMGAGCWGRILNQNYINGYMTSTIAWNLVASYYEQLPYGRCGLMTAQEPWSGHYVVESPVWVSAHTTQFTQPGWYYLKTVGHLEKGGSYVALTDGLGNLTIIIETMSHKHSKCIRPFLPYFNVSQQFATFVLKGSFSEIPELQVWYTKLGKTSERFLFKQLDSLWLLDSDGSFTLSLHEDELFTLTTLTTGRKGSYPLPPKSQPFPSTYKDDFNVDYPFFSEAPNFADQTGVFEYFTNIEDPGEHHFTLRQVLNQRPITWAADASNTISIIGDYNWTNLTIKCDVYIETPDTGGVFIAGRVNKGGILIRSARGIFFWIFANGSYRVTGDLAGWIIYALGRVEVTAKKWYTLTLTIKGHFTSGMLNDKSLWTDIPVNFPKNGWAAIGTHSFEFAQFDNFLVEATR
Summary of the method: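 Brain-derived Twitcher mouse 145M-Twi cells stably expressing human GALC-G270D or wild-type GALC, treated live, then residual GALC activity read by fluorescence of HMU-b-Gal substrate (0.1 mM final) in citrate-phosphate buffer pH 5.2 with sodium taurocholate. Signal increase indicates enhancement.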

activation, inactive:
Cc1cccc(NS(=O)(=O)c2ccc3c(c2)CCN3C(=O)C2CCC2)c1 -9.58%
COC(=O)C1CCN(S(=O)(=O)c2cc3c4c(c2)CC(=O)N4CCC3)CC1 -23.6%
CCN(C)C(=O)Oc1cccc([C@H](C)N(C)C)c1 -2.39%
O=C(c1cccs1)N1CCCc2cc(NS(=O)(=O)c3ccc(F)cc3F)ccc21 -19%
CCCN(CCC)CCCNC(=O)Cn1cnc2sc(C)c(S(=O)(=O)N3CCC(C)CC3)c2c1=O -16%
O=C(Nc1cccc(F)c1)c1ccc(-c2ccccc2)s1 -7.86%
Cc1ccc(C)c(N2CCN(Cc3csc(C)c3)CC2)c1 -0.38%
Cc1ccc(C)c(NC(=O)Cn2c(=O)n(Cc3ccccc3)c(=O)c3oc4ccccc4c32)c1 -16.9%
Nc1ccc(S(=O)(=O)Nc2ccnn2-c2ccccc2)cc1 -4.46% [at 23.8 µM]
CCOCCCn1c(=N)c(C(=O)NCC2CCCO2)cc2c(=O)n3cccc(C)c3nc21 (configuration not stated) -17.5%
COC(=O)C1=C(c2ccccc2)c2ccccc2S(=O)(=O)N1CC(=O)Nc1ccccc1Cl -1.15%
Cc1ccc(CN2C(=O)c3ccccc3Sc3ccc(C(=O)OCc4ccco4)cc32)cc1 -15.1%
COc1ccc(Br)cc1CNC(=O)c1ccc2c(c1)N(Cc1ccc(C)cc1)CCS2 -12.3%
Cc1ccc(S(=O)(=O)c2cn(Cc3ccccc3Cl)c3ccc(F)cc3c2=O)cc1 12.2%
COc1ccc2c(c1)NC(c1cccnc1)=NC(c1ccc(F)cc1)=N2 -21.4%
COc1ccccc1-c1noc(-c2ccc(NC(C)C)c([N+](=O)[O-])c2)n1 11.2%
COc1ccc(Cn2c(=O)[nH]c3cc(C(=O)N4CCN(c5cc(Cl)ccc5C)CC4)ccc3c2=O)cc1 -2.03%
O=C(CCCCn1c(=O)c2ccccc2n(CC(=O)Nc2cccc(F)c2)c1=O)NCCc1ccccc1 -16.5%
COc1ccc2[nH]cc(S(=O)(=O)c3ccc(C)c(C)c3)c(=O)c2c1 -2.61%
COc1ccc(-c2nn(-c3cccc(F)c3)c3c2cnc2cc(OC)c(OC)cc23)cc1 -1.82%
O=C(NC1CC(=O)N(c2ccc(F)cc2)C1)C1CC1 (configuration not stated) 7.08%
CC(C)NC(=O)CCN1C(=O)c2ccccc2Sc2ncccc21 -5.04%
Cc1ccc(NC(=O)Cn2nnc(C(=O)NCc3ccc4c(c3)OCO4)c2N)cc1Cl 0.594%
COc1ccc2oc(=O)c(-c3nc(-c4cccs4)no3)cc2c1 -13.3%
CCc1ccc(NC(=O)Cn2cc(S(=O)(=O)N3CCCC3)c(S(=O)(=O)N3CCCC3)c2)cc1 -7.16%
CC(=O)c1ccc(OCC(=O)N2CCCCC2)cc1 -33.2%
Cc1cc(C)cc(NC(=O)CCCc2nc(-c3ccccc3Cl)no2)c1 -12.6%
CSc1nc2sc3c(c2c(=O)n1-c1ccccc1)CCC(C(C)(C)C)C3 (configuration not stated) -7.4%
CCOCC(O)COc1ccc(NC(=O)CC[S+](C)C)cc1 (configuration not stated) -3.76%
Cn1c(=O)n(CCCc2ccccc2)c(=O)c2c1nc1n2CCN1c1ccc(F)cc1 -0.554%
CCOC(=O)c1cc2c(=O)n3ccccc3nc2n(Cc2ccco2)c1=NC(=O)c1ccc(OCC)cc1 -7.52%
COc1cc(OC)c(N(C)C(=O)c2sc3nc4n(c(=O)c3c2C)CCCC4)cc1Cl -19.2%
Cc1nn(C(=O)c2ccc(Br)cc2)c(C)c1Sc1ccccc1 -1.73%
CCCCOC(=O)c1ccc(NC(=O)c2cnc3ccc(C)cn3c2=O)cc1 -11.5%
CCn1c(=O)cc(OCC(=O)N2CCN(c3ccc(F)cc3)CC2)c2ccccc21 -0.144%
CCN(c1cccc(C)c1)c1ncnc2c1cnn2-c1cccc(Cl)c1 -14.2%
Cc1ccc(NC(=O)Cn2c(=O)n(Cc3nc(-c4ccccc4)no3)c(=O)c3cc4c(cc32)OCO4)c(C)c1 -12.6%
CCN1/C(=C/C=C/c2sc3ccccc3[n+]2CC)Sc2ccccc21 -13.7% [at 23.8 µM]
COc1ccc(Nc2c(-c3ccccn3)nc3ccc(Cl)cn23)cc1 -25.9%
COc1cccc(Nc2nc3ccc(C)cc3nc2-n2nc(C)cc2C)c1 -6.29%
CCc1ccc(-n2c(=O)c3cccnc3n2CC(=O)NCc2ccc(C)cc2)cc1 -32.2%
Cc1ccc(NC(=O)C2=CC(c3ccc4c(c3)OCO4)=NS(=O)(=O)N2C)cc1 -15.8%
COc1ccc(Cl)cc1NC(=O)CSC1=Nc2ccccc2C2=NC(CC(=O)NCc3cccs3)C(=O)N12 (configuration not stated) -21.6%
COc1ccc(CCNC(=O)CSc2n[nH]c(-c3ccccc3Cl)n2)cc1OC -6.86%
O=C(NCc1ccccc1)c1cnc(N2CCCCC2)c2ccccc12 -2.33%
COc1ccc2c(c1)c1c(c(=O)n(-c3ccccc3C)c(=O)n1Cc1c(F)cccc1Cl)n2C -13.9%
CCCCN(C)C(=O)Cn1c(SCC(=O)Nc2ccc(C)c(C)c2)nc2ccccc21 -7.58%
CCOC(=O)C1(C)C=C(Nc2ccc(C(=O)O)cc2)C(=O)N1c1ccc(C(=O)O)cc1 (configuration not stated) -16.4%
Cc1nc2ccccc2n1CCc1nc2c3ccccc3nc(SCc3ccc(F)cc3)n2n1 0.755%
CCOC(=O)c1c(C)oc2nc(C)nc(NCC3CCN(Cc4cccc(Cl)c4)CC3)c12 2.18%
COc1ccccc1N1CCN(CC(O)COc2ccc(C)cc2C(C)(C)C)CC1 (configuration not stated) -28.8%
Cc1ccc(C)c(N2CCN(CCCNC(=O)Nc3ccc(Cl)cc3)CC2)c1 -18.5%
Cc1cccc(NC(=O)C2CCCN(c3nc4ccccc4s3)C2)c1C (configuration not stated) -11.9%
CCOC(=O)C1CCCN(C(=O)Cn2nc(CC)n3c(cc4occc43)c2=O)C1 (configuration not stated) -12.8%
CC(=O)c1ccc(N2C(=O)N(Cc3cc(C)ccc3C)c3ccccc3S2(=O)=O)cc1 -9.08%
O=S(=O)(Nc1ccc(Cl)cc1)c1cccc(S(=O)(=O)c2ccc(Cl)c(Cl)c2)c1 -11.1%
Cc1cc(Nc2ccc(F)cc2)nc(-n2nc(C)cc2C)n1 -3.06%
Cc1ccc(CCNC(=O)c2ccc(CS(=O)(=O)Cc3ccccc3F)o2)cc1 3.59%
CCOc1ccccc1NC(=O)CN1C=NS(=O)(=O)c2ccccc21 -16%
Cc1ccc(NC(=O)CCNS(=O)(=O)c2ccc3c(c2)CCCC(=O)N3)cc1 -11.7%
Cc1ccc(C(=O)Nc2ccc3nc(N4CCCCC4)cc(C)c3c2)cc1F -17.2%
COc1cccc2cc(-c3nc(-c4ccc(C)cc4)c(C)s3)c(=O)oc12 -16.8%
COc1ccc(NC(=O)Cn2c(=O)n(-c3ccc(C)c(C)c3)c(=O)c3c(C)c(C)sc32)cc1 -9.21%
COc1cccc(N2CC(NC(=O)C3CC3)CC2=O)c1 (configuration not stated) -14.9%
CCOc1ccccc1O[C@H](c1ccccc1)[C@H]1CNCCO1 -11.5%
CCc1cccc(C)c1NC(=O)CCn1nc(C)c2c(C)n(-c3ccccc3)nc2c1=O -19.8%
CC1=C(C(=O)Nc2cccc(C(F)(F)F)c2)C(c2ccccc2)n2ncnc2N1 (configuration not stated) -0.937%
COc1ccc(NC(=O)Cc2noc3ccc(C)cc23)cc1Cl -0.621%
CCC(C)NC(=O)Cn1c(=O)ccc2cc(S(=O)(=O)N3CCCC3)ccc21 (configuration not stated) -12.2%
CCCN(C(=O)c1cc2c(=O)oc3ccccc3c2s1)c1ccccc1C -17.4%
CCOC(=O)c1c(S(=O)(=O)N2CCC(C(=O)Nc3cccc(C)n3)CC2)c(C)n(C)c1C -13%
COCC(=O)N1c2nc(-c3ccco3)nn2C2(CCCCC2)[C@@H]2CCCC[C@@H]21 -9.4%
CCc1ccc2c(c1)c(=O)c(S(=O)(=O)c1ccccc1)cn2CC(=O)Nc1ccc(OC)cc1 -9.33%
Cc1ccc(NC(=O)Cn2nnc(C(=O)NCCc3ccccc3)c2N)cc1Cl -5.99%
Cc1ccc(CCNC(=O)c2ccc(NC(=O)N3CCSc4ccccc43)cc2)cc1 -8.79%
CCOc1ccc2c(c1)c(=O)c(C(=O)c1ccc(CC)cc1)cn2CC(=O)Nc1ccccc1C -10.5%
Cc1ccc(C)c(N2CCN(c3nc4c(S(=O)(=O)c5ccccc5)nnn4c4ccc(Cl)cc34)CC2)c1 -15.5%
COc1ccc(N2CCN(c3cc(C)nc4nncn34)CC2)cc1 -12.7%
Cc1ccc(S(=O)(=O)NCCc2csc3nc(-c4ccccc4C)nn23)cc1 -3.24%
Cc1ccc(CNC(=O)C(C)n2ccc3cc(S(=O)(=O)N4CCCC4)ccc32)cc1 (configuration not stated) -9.83%
CCOc1cc(CNC(=O)c2ccc3nc(CCc4ccccc4)oc3c2)ccc1OC -9.5%
O=C(CSc1nc2ccccc2n1Cc1c(F)cccc1Cl)N1CCN(c2ccc(F)cc2)CC1 -14.4%
O=C(CSc1nc2ccsc2c(=O)n1Cc1ccccc1Cl)NCc1ccc(Cl)cc1 -12.8%
COc1ccc(NC(=O)CN2C(=O)C3(SCC(=O)N3c3cccc(OC)c3)c3ccccc32)cc1 (configuration not stated) -21.7%
COc1cccc(C2=CC(c3ccccc3F)n3c(nc4ccccc43)N2)c1 (configuration not stated) -12%
CCC(C(=O)N1CCN(c2ccccc2)CC1)n1nc(C)c2sc3ccccc3c2c1=O (configuration not stated) 0.182%
Cc1ccccc1NC(=O)c1cnc2sc(N3CCCC3)nn2c1=O 11.1%
COc1ccc(N2CC(NC(=O)c3c(F)cccc3Cl)CC2=O)cc1OC (configuration not stated) -0.843%
CCOc1ccc(N2CC(c3nc4ccccc4n3CCOc3ccc(CC)cc3)CC2=O)cc1 (configuration not stated) -11.9%
O=C(c1ccc2c(Cl)c3c(nc2c1)CCCC3)N1CCN(c2ccccc2F)CC1 -24.4%
O=C(Nc1nnc(SCc2cc(=O)n3cc(Cl)ccc3n2)s1)c1cccc(F)c1 -12.4%
Cc1cccc(OCCCn2c(CCNC(=O)C(C)(C)C)nc3ccccc32)c1 -0.274%
CCCN1CCc2nc(N3CCN(c4ncccn4)CC3)ncc2C1 -10.5%
Cc1cccc(OCCSc2nc3ccc(NC(=O)COc4ccccc4)cc3s2)c1 -19%
CCn1cc2nc(SCc3cc(C)ccc3C)n(Cc3ccc(OC)cc3)c(=O)c2n1 -25.4%
Cc1ccc(C)c(CN2C(=O)c3ccccc3S(=O)(=O)c3ccc(C(=O)NCc4ccccc4)cc32)c1 -10.2%
COc1ccc(CN(Cc2ccco2)c2cnc(S(C)(=O)=O)nc2C(=O)Nc2ccc(C)cc2C)cc1 -8.87%
